T1: UNK ZnF1-3 (human, UniProt Q9C0B0 31-174)
T1 sequence: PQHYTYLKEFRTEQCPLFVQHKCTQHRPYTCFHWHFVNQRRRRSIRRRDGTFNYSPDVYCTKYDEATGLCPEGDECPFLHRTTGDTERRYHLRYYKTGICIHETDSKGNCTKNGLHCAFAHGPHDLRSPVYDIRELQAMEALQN

B1: chr5:86670034:86670035:+_ENSG00000145715_ENST00000456692|hu_mus|motif|central (ssRNA)
RNA: GGGAGUUCUACAGUCCGACGAUCCUCUGACCAUACUGGGUUUUGCCCCUCCCUUGCAUGAGUUUUUGCUACUUGGACGCGGUUCAAGUAGAUGUUACAAUAUGGAUUAGUAAAGUGUUUUACUGGUAGUUUAUGGGCUUCUUCCAACAGAGGAUUGAGCAUCA
B2: chr16:94690093:94690094:+_ENSMUSG00000040785_ENSMUST00000117648|mus_hu|mus_mus_mus_hu_True|38_38 (ssRNA)
RNA: GGGAGUUCUACAGUCCGACGAUCGGGCUGGGAUGACGGACACACAGCCUCGAUUCCAGGGGGAAAAAGUCUUAGUCGAUACUAAUUAAAAAGUGUUUUUAUAAUUGGAAAAUCAGAUUACAUCUAUAAAAGAUGAAAAGCAAACAACAGAGGAUUGAGCAUCA
B3: chr2:114342542:114342543:-_ENSMUSG00000057147_ENSMUST00000102542|mus_hu|FALSE|FALSE (ssRNA)
RNA: GGGAGUUCUACAGUCCGACGAUCUAAAGGAGAGGGAGGGAUGAAUAAGUAAAACACAGAGGAUUUUUUAAGGCAGUGAAAUUAUUCUGUAUAAUACUAUAACGGUUGACAAAUGUCAUUACACAUUUGUCAAAACCCAUAUUACAACAGAGGAUUGAGCAUCA
B4: chr2:125074910:125074911:+_ENSMUSG00000027203_ENSMUST00000082122|mus_hu|FALSE|FALSE (ssRNA)
RNA: GGGAGUUCUACAGUCCGACGAUCUUUUGCAGCCAAGCCUGACCGUGGAGCCACUCUUCCAUAACACCCAGAAGGGAGCGCUAUCUGAAUGUCCGUUUUCACAACAGCUUUCUCCAUAGGUGGUAUUGUGUAAUCAUAGGCACUCAACAGAGGAUUGAGCAUCA
B5: chr2:42509997:42509998:+_ENSG00000143924_ENST00000318522|hu_mus|hu_hu_hu_mus_True|78_108 (ssRNA)
RNA: GGGAGUUCUACAGUCCGACGAUCUCGCUGAGUUCUCUCCUCAUAAUUAAACAGGACUACUACUGAUGCGAUAAAAUAAACUAUCUCCCCUGUGGGAAGCAGGUAUACAUUCGCUCUACAGUCCUUUCCUCGAUAACCGUAUACCAACAGAGGAUUGAGCAUCA
B6: chr9:62645482:62645483:-_ENSMUSG00000032244_ENSMUST00000034775|mus_mus|FALSE|FALSE (ssRNA)
RNA: GGGAGUUCUACAGUCCGACGAUCGACUGUGGUGUGGUUCACGUUGGCUCCAUGGCUGACUAGAAGUUUAACAACUUCAAAAUGUCCGGCUCCCGCAGCACACCAAAGAGCAGUGGCACCGUCAAUGACAUACCCGUCGAAGCGCAACAGAGGAUUGAGCAUCA
B7: chr9:122046315:122046316:+_ENSMUSG00000038145_ENSMUST00000120173|mus_hu|motif|central (ssRNA)
RNA: GGGAGUUCUACAGUCCGACGAUCUAGUUUGGUCUGGGUGUCAAUAACUUCAUAAAGGCGGACGAUGUUAGGAUGCUGCACGGGUUUCAUGCAUCUCACUUCCUGGAAAAGAUGACCAGUAGCUAGAGUGUCCAGUUUUGUCUUCAACAGAGGAUUGAGCAUCA
B8: chr16:32231720:32231721:-_ENSMUSG00000035764_ENSMUST00000042732|mus_hu|FALSE|FALSE (ssRNA)
RNA: GGGAGUUCUACAGUCCGACGAUCACAAUCUUAACUCCCAAGGAGCAAUCCAAGAAUCCCGGCCAGCUGCUGGGUGUCCCUAAUCAGAUUUAAAACAAAACAUACAUACAGCAAGAACUCAGAAGUACAAAGAUUUCGCUCGCUCAACAGAGGAUUGAGCAUCA
B9: chr17:65740002:65740003:+_ENSG00000130935_ENST00000581375|hu_hu|hu_hu_hu_mus_False|8_38 (ssRNA)
RNA: GGGAGUUCUACAGUCCGACGAUCAACAAAUCUUUCUUCCCUGGACGAACAGGAAGAUUCAUAUUAAAAAAAAUAUAUAUCCAUCAAGUUAGGUGUGUAAUAUCAGACUUUACUCCCAGCACUUUGGGAAUAUAAUCUCUGAGUCAACAGAGGAUUGAGCAUCA
B10: chr7:135612270:135612271:-_ENSG00000105887_ENST00000393085|hu_mus|hu_hu_hu_mus_False|58_58 (ssRNA)
RNA: GGGAGUUCUACAGUCCGACGAUCGUUUUUUUCUGAGAUGUUAAAUAGUACUUCAGUGGAAAACAAAACUUAACCUUUCGCUAAUGCGUGUUGUACCAAAAGCAGACAUUUUAGCUUCAUUUAUUCAAAAAUAUUAACAUUAAGCAACAGAGGAUUGAGCAUCA
B11: chr13:45008927:45008928:-_ENSG00000102804_ENST00000261489|hu_hu|motif|central (ssRNA)
RNA: GGGAGUUCUACAGUCCGACGAUCAGGACUGGCCAGUGUCUUCAGCAGAUUGUUCUCCUGCUCCAGCUGGGAAUUUUUCUCGGUUAGUUCUUUGAUUUGCUCUUUGAGGACCUCCACUUCUUCUCUGACCGCAUACAUCAAAUGCAACAGAGGAUUGAGCAUCA
B12: chr19:8913615:8913616:-_ENSMUSG00000071658_ENSMUST00000096259|mus_hu|mus_mus_mus_hu_False|1_68 (ssRNA)
RNA: GGGAGUUCUACAGUCCGACGAUCAGGGUACCAAAACCUUCUGCCUGAAAUGGGUGCCCCACCCAGUCAGGACUUGGAGCUGAAAGUAUCUGAUGCAGAAGCAGUGACUAUACGAAAGGAGGCCCCUGGGGAGGGCCCGAGAUCCAACAGAGGAUUGAGCAUCA
B13: chr7:151048522:151048523:+_ENSG00000013374_ENST00000566856|hu_mus|hu_hu_hu_mus_True|48_78 (ssRNA)
RNA: GGGAGUUCUACAGUCCGACGAUCCUGUUUCUUAUUUAUUACGAUCUUGAUGUAAUUUUCUUGAAGUCCGAAAGUUUCAGCUAUUUGGGACCUCAGUUCUCUACCAGUGACAUGCAAGCGGGUCUCCAACAAGCUUUUCUUAUCCAACAGAGGAUUGAGCAUCA
B14: chr6:85879240:85879241:+_ENSMUSG00000054226_ENSMUST00000067137|mus_mus|FALSE|FALSE (ssRNA)
RNA: GGGAGUUCUACAGUCCGACGAUCUACUGCUAUACUCUUUUAGCUGCCUCUUGUAUAAAGUGGGCACAAAGACAUAUCUACCUAAAAAGCAGCUAAGAGAGUUAAAUGAAUUGCUAUUUAUUGAGAUAGGAUUUGACAUAGUACCAACAGAGGAUUGAGCAUCA
B15: chr3:41417089:41417090:+_ENSMUSG00000025764_ENSMUST00000026865|mus_hu|motif|central (ssRNA)
RNA: GGGAGUUCUACAGUCCGACGAUCAACCAAGGAAGUACCCAUUUGUUUUCUGAAGAAUGCAGAAUGCCACUUCAAGUCCUCGGUCUUGGGAGCAUCAGGGCCAACAGAAGGACUGUUAAACAAAAGCAUGUUUUCCAGUGAGGACAACAGAGGAUUGAGCAUCA
B16: chr10:33190432:33190433:-_ENSG00000150093_ENST00000302278|hu_mus|hu_hu_hu_mus_True|8_68 (ssRNA)
RNA: GGGAGUUCUACAGUCCGACGAUCUACAUUUUCCAAACCUGCAUGUGAAUAAAACCCUGGCCACAGAGCCCUAAAGCUACCCUACUGUGACUAAGAUGCUGCUGCUGUGAGCUUGGUGUUGCAAAAUUUUGCACGGGAGGAUUCCAACAGAGGAUUGAGCAUCA
B17: chr16:24801560:24801561:+_ENSG00000090905_ENST00000315183|hu_mus|FALSE|FALSE (ssRNA)
RNA: GGGAGUUCUACAGUCCGACGAUCCAUUAGAGUUGCAUUCACAGUGUCACCAUUGGCUUGGCCAUUAGGGCCUGCACAUUUGUCGCCAGAGUAAUUAGAACCAUAGGCACCCCAUGUAGUACCGUAGGAGCCUCCAGUUUUUGACAACAGAGGAUUGAGCAUCA
B18: chr11:9452432:9452433:+_ENSG00000205339_ENST00000379719|hu_hu|FALSE|FALSE (ssRNA)
RNA: GGGAGUUCUACAGUCCGACGAUCAAAUGUCAUUGCCAAAUGUUGUGUCAUUUCUACUGCAAUAGGAGUAACUUCUUCACUAUAUUCACAGAUCAUUUUCUGAAUUACAUUGGUAAGGUCAUCAUUUUCUGUUUCUCUUAUAAUCAACAGAGGAUUGAGCAUCA
B19: 95994332_95994631_2066_CDS_ENSMUSG00000038486_ENSMUST00000035371|mouse|control|control (ssRNA)
RNA: GGGAGUUCUACAGUCCGACGAUCGCUGGAUGUAACAUCUUCAAAGUAACACUCCUCAAACAGGGAAUCCUCAAAGGACACUGACUUCAGACGCAGCCCGAUGAACUUGUCAUUGAAGUACUGUCCCCCUCGGUGGAUCUGAUUCAACAGAGGAUUGAGCAUCA
B20: chr17:55760890:55760891:+_ENSG00000153944_ENST00000284073|hu_hu|FALSE|FALSE (ssRNA)
RNA: GGGAGUUCUACAGUCCGACGAUCUGUAAACAAUUUCAUAUGCAAUAUAAUACAGAAAGCAUGGCUGACCUUCAAUAAAAAAUGUAGUAAACGAUAUUGCUUUAUUCUUGAAUAUGCUGCAGUGAGUGAAUGGCAGAAUGAAGCCAACAGAGGAUUGAGCAUCA
B21: chr13:30086970:30086971:-_ENSG00000139514_ENST00000380752|hu_hu|FALSE|FALSE (ssRNA)
RNA: GGGAGUUCUACAGUCCGACGAUCUGAUACGGAGGCUCAGCCCAUGGCCAUCCACCCGCCCUCCACCGCCGUGUUCACAAAUUCUUGCACUUCUCUCCAAGAACCUUCUGGGGGCACAGGGAGGGUACAAGUGCCCUCAAUUUACAACAGAGGAUUGAGCAUCA
B22: chr9:111179681:111179682:+_ENSMUSG00000046785_ENSMUST00000060711|mus_hu|motif|central (ssRNA)
RNA: GGGAGUUCUACAGUCCGACGAUCAACUUAAUAUUACAUAGUGGAUUUGGUGUGUAUAUUUGGUUUUGAAUCCUGAGUUUACGGCUUACUGUGUUUACCAGGGAAAACCGCAAUUUGUUAUCCUUCUCUCCUUUCAUACAACAGCAACAGAGGAUUGAGCAUCA

Some of the results follow.

This assay deals with T1, UNK ZnF1-3. The assay can be described thus: nsRBNS (natural sequence RNA bind-n-seq); RBNS binding buffer (assumed for nsRBNS): 25 mM Tris pH 7.5, 150 mM KCl, 3 mM MgCl2, 0.01% Triton X-100, 500 ug/ml BSA, 20 U/ml SUPERase-In, 4 C; UNK is unkempt and MSI1 is Musashi-1; names of the RNAs are library labels; protein concentration not given here; high values mean tight binding.
Molecule B1 had a binding signal of 0.377 enrichment R. With B2, the binding signal is 1.15 enrichment R. Molecule B3 registered a binding signal of 2.78 enrichment R. To B4 belongs 0.912 enrichment R. Under B5 stands 0.963 enrichment R. Under B6 stands 1.05 enrichment R. B7 came in with a binding signal of 1.03 enrichment R. The molecule B8 had a binding signal of 1.4 enrichment R. Under B9 stands 1.27 enrichment R; under B10, 1.03 enrichment R; under B11, 0.889 enrichment R. Molecule B12 gave a binding signal of 1.54 enrichment R. B13 showed a binding signal of 0.552 enrichment R. Take B14: the binding signal was determined as 1.41 enrichment R. To B15 belongs 1.71 enrichment R. Regarding B16, the binding signal was found to be 0.962 enrichment R.

As for B17, the binding signal came to 0.964 enrichment R. To B18 belongs 0.645 enrichment R; to B19, 0.883 enrichment R; to B20, 1.37 enrichment R.

As for B21, the binding signal is 0.953 enrichment R. As to B22, the binding signal came out at 0.715 enrichment R.

The record behind these values is publication PMC12136788.
